From patent US20170066807A1 (Pieris, published 2017)
Changes are numbered by the printed parent chain.

B1: Tlc mutein of SEQ ID NO: 7 (designed binder)
chain: ASDEEIQDVSGTWYLKAMTVDTLCPGRFEGSVTPMTLTTLEGGNLEAKVTNTIDGEYQEVKAVLEKTDEPGKYTVDGGKHVAYIIRSHVKDHYIFYSEGECAGLPVPGVWLVGRDPKNNLEALEDFEKAAGARGLSTESILIPRQSETSSPG
notes: Human tear lipocalin mutein; It was detected via Strep-tag II or a scaffold-specific antibody
B2: Tlc mutein of SEQ ID NO: 8 (designed binder)
chain: ASDEEIQDVSGTWYLKAMTVDTECFEARFHSVTPMTLTTLEGGNLEAKVTMWLNGWRQEVKAVLEKTDEPGKYTADGGKHVAYIIRSHVKDHYIFYSEGDCEGWPVPGVWLVGRDPKNNLEALEDFEKAAGARGLSTESILIPRQSETSSPG
notes: as for B1
B3: SEQ ID NO 18 (designed binder)
chain: B1 chain with N51I, T52A, Y57D, V75A
B4: SEQ ID NO 11 (designed binder)
chain: ASDEEIQDVSGTWYLKAMTVDDTCPGHYQGSVTPMTLTTLEGGNLEAKVTMPLDGDGQEVKAVLEKTDEPGKYTADGGKHVAYIIRSHVKDHYIFYSEGWCAGLPVPGVWLVGRDPKNNLEALEDFEKAAGARGLSTESILIPRQSETSSPG
B5: SEQ ID NO 12 (designed binder)
chain: ASDEEIQDVSGTWYLKAMTVDTECRGHWHGSVTPMTLTTLEGGNLEAKVTQSIWGTAQEVKAVLEKTDEPGKYTADGGKHVAYIIRSHVKDHYIFYSEGECAGLPVPGVWLVGRDPKNNLEALEDFEKAAGARGLSTESILIPRQSETSSPG
B6: SEQ ID NO 13 (designed binder)
chain: ASDEEIQDVSGTWYLKAMTVDSNCKKLQGNSVTPMTLTTLEGGNLEAKVTMFIWGWWQEVKAVLEKTDEPGKYTADGGKHVAYIIRSHVKDHYIFYSEGTCYGSPVPGVWLVGRDPKNNLEALEDFEKAAGARGLSTESILIPRQSETSSPG
B7: SEQ ID NO 14 (designed binder)
chain: B6 chain with S22G, N23T, K25S, Q28H, F52L, W57K, T100S, Y102F
B8: SEQ ID NO 15 (designed binder)
chain: ASDEEIQDVSGTWYLKAMTVDFDCEFWLVPSVTPMTLTTLEGGNLEAKVTMWIFGIWQEWKAVLEKTDEPGKYTADGGKHVAYIIRSHVKDHYIFYSEGWCPGKPVPGVWLVGRDPKNNLEALEDFEKAAGARGLSTESILIPRQSETSSPG
B9: SEQ ID NO 16 (designed binder)
chain: ASDEEIQDVSGTWYLKAMTVDYRCLWGKLWSVTPMTLTTLEGGNLEAKVTMRLAGPKQEVKAVLEKTDEPGKYTADGGKHVAYIIRSHVKDHYIFYSEGHCAGFPVPGVWLVGRDPKNNLEALEDFEKAAGARGLSTESILIPRQSETSSPG
B10: SEQ ID NO 17 (designed binder)
chain: ASDEEIQDVSGTWYLKAMTVDVDCLNSYLRSVTPMTLTTLEGGNLEAKVTMNIHGYYQELKAVLEKTDEPGKYTADGGKHVAYIIRSHVKDHYIFYSEGACTGSPVPGVWLVGRDPKNNLEALEDFEKAAGARGLSTESILIPRQSETSSPG
B11: SEQ ID NO 19 (designed binder)
chain: B1 chain with T52V, Y57T, V75A
B12: SEQ ID NO 21 (designed binder)
chain: B1 chain with N51M, T52A, D54P, E56Q, Y57V, V75A
B13: SEQ ID NO 22 (designed binder)
chain: B1 chain with N51M, T52P, D54T, E56V, Y57I, V75A
B14: SEQ ID NO 23 (designed binder)
chain: B4 chain with D22E, T23F, Q29E, M51N, P52D, L53I, D54Q, D56V, G57D, A102Y
B15: SEQ ID NO 24 (designed binder)
chain: B1 chain with N51T, T52W, I53S, D54E, Y57F, V75A
B16: SEQ ID NO 25 (designed binder)
chain: B1 chain with N51M, T52W, E56V, Y57I, V60D, V75A
B17: SEQ ID NO 26 (designed binder)
chain: B1 chain with N51S, T52D, D54L, E56V, Y57N, V75A
B18: SEQ ID NO 27 (designed binder)
chain: B1 chain with N51T, T52S, D54E, Y57L, V75A
B19: SEQ ID NO 28 (designed binder)
chain: B1 chain with N51T, T52Q, E56S, Y57V, V75A
B20: SEQ ID NO 29 (designed binder)
chain: B1 chain with T52L, E56Q, V75A
B21: SEQ ID NO 30 (designed binder)
chain: B1 chain with N51Q, T52F, E56T, Y57L, V75A
B22: SEQ ID NO 32 (designed binder)
chain: B1 chain with T22E, L23V, R27H, F28W, N51I, T52A, Y57D, V75A
B23: SEQ ID NO 33 (designed binder)
chain: B5 chain with T22V, E23V, R25P, H29E, Q51M, S52D, I53L, W54V
B24: SEQ ID NO 34 (designed binder)
chain: B4 chain with D22V, T23V, Y28W, Q29E, M51L, P52E, L53I, G57T, W100E
B25: SEQ ID NO 35 (designed binder)
chain: B1 chain with N51M, T52S, D54E, E56V, Y57T, V75A
B26: SEQ ID NO 36 (designed binder)
chain: B1 chain with N51S, T52L, D54E, Y57L, V75A
B27: SEQ ID NO 37 (designed binder)
chain: B1 chain
B28: SEQ ID NO 38 (designed binder)
chain: B1 chain with N51Q, T52F, Y57W, V75A
B29: SEQ ID NO 39 (designed binder)
chain: B1 chain with N51T, T52F, E56S, Y57V, V75A
B30: SEQ ID NO 40 (designed binder)
chain: B1 chain with N51Q, T52D, E56I, Y57Q, V75A
B31: SEQ ID NO 41 (designed binder)
chain: B1 chain with N51M, T52P, D54E, E56G, Y57I, V75A
B32: SEQ ID NO 42 (designed binder)
chain: B1 chain with N51M, T52A, D54V, E56V, Y57E, V60A, V75A
B33: SEQ ID NO 43 (designed binder)
chain: B1 chain with N51M, T52W, D54E, E56G, Y57L, V75A
B34: SEQ ID NO 20 (designed binder)
chain: B2 chain
B35: SEQ ID NO 31 (designed binder)
chain: B1 chain with N51I, T52A, Y57D, V75A

target: T1, human GPC-3 on cells (SK Hep1:hGPC-3 transfectants; HepG2) (human, UniProt P51654 25-554); assay: flow cytometry titration on human GPC-3 transfected SK-Hep1 cells, geometric mean fluorescence, detection with anti-Tlc antiserum and anti-rabbit IgG-PE
T1 construct: whole, on cells; The same molecule is used for the transfected SK-Hep1 cells and the GPC-3 positive HepG2 cells; The cell line is named under assay; also called Glypican-3
Description: Empty vector control cells were also obtained and analyzed in parallel. Expression of GPC-3 was also confirmed using a known mouse anti-GPC-3 clone 1G12 monoclonal antibody (DOS).
In order to assess binding of muteins to the GPC-3 on the cell surface, cells were incubated on ice with increasing concentrations of each lipocalin mutein for 2 hr. Following two washing steps cells were incubated with a secondary rabbit anti-Tlc scaffold antiserum was employed for 30 min. […] Flow cytometry analysis was performed and geometric mean values were compiled in FlowJo (Treestar software) and fitted to a sigmoidal dose response model in the Prism 5 program (GraphPad) to obtain EC50 values.

Binder	EC50 (read off the curve)
B1	~200 nM
B2	~10 nM

target: T2, recombinant human GPC-3 protein (immobilized on plate) (human, UniProt P51654 25-559); assay: competition ELISA: mutein dilution series with a fixed concentration of GPC-3 in solution, transferred to a plate with immobilized recombinant human GPC-3; bound mutein detected with antibody-HRP conjugate [contd]
T2 construct: also called R&D 2119-GP/CF
Description: (§1) The affinity (IC50/EC50 values) of the Tlc muteins was determined as summarized in FIG. 5 (SEQ ID NOs: 11-43): [0232] […] Samples were then transferred to a protein high-binding 384er plate with immobilized recombinant human GPC-3 protein. The bound lipocalin muteins were detected by a specific Antibody HRP conjugate complex. […] [0233] […] The bound lipocalin muteins were detected by a specific Antibody HRP conjugate complex.

Binder	IC50
B3	43.5 nM
B4	32.1 nM
B5	276 nM
B6	9.74 nM
B7	15.4 nM
B8	252 nM
B9	1.45 nM
B10	258 nM

target: T3, biotinylated human GPC-3 (R&D Systems) (human, UniProt P51654 25-559, randomly biotinylated via Lysine residues using EZ-Link Sulfo-NHS-LC-LC-Biotin); assay: direct ELISA, biotinylated human GPC-3 captured via Neutravidin, dilution series of the Tlc mutein
T3 construct: Bought protein; also called biotinylated recombinant human GPC-3 (R&D 2119-GP/CF)
Description: An ELISA was performed to verify the binding affinity and specificity of the selected Tlc muteins. Therefore, a constant concentration of 1 μg/ml biotinylated human GPC-3 (R&D Systems) was captured on the surface of a polystyrol plate (Greiner, GE) via BSA blocked Neutravidin (Thermo Scientific, 5 μg/ml). Two step dilution series of purified Tlc muteins were incubated with the captured GPC-3 for 1 h at room temperature and detected either via the Strep-tag II using a rabbit anti-strep-tag II polyconal antibody (GenScript, USA) or by using a scaffold-specific polyclonal rabbit antibody. In both cases an anti-rabbit-IgG-HRP conjugate (Abcam, UK) was employed as secondary detection antibody.
The absorption ΔA at 320 nm was measured in an ELISA reader (Tecan, GE) and the data were fitted with Graphpad Prism software (Statcom, USA).

Binder	EC50
B1	5.1 nM
B2	1.2 nM

target: T2, recombinant human GPC-3 protein …; assay: direct ELISA: mutein dilution series on a plate with immobilized recombinant human GPC-3; bound mutein detected with antibody-HRP conjugate [contd]
Description: as §1

Binder	EC50
B11	3.75 nM
B12	22.2 nM
B13	31.2 nM
B14	0.47 nM
B15	2.8 nM
B16	2.6 nM
B17	10 nM
B18	28 nM
B19	4.6 nM
B20	3.2 nM
B21	2.9 nM
B22	4 nM
B23	13.5 nM
B24	4.5 nM
B25	62 nM
B26	2.4 nM
B27	1.1 nM
B28	4.5 nM
B29	12.6 nM
B30	1.4 nM
B31	7 nM
B32	6 nM
B33	19 nM
B34	0.9 nM
B35	20 nM
